Test results taken from PMC12179603.
No constants are given. Whether binding was seen depends on the method and setting. In cells and extracts the contact can be indirect. Some binding calls cover weakened binding; strength is not graded here. Sequences can lack the tags named with a protein.

Amino acid sequences for entries named in this document (tags omitted).
UniProt Q93571: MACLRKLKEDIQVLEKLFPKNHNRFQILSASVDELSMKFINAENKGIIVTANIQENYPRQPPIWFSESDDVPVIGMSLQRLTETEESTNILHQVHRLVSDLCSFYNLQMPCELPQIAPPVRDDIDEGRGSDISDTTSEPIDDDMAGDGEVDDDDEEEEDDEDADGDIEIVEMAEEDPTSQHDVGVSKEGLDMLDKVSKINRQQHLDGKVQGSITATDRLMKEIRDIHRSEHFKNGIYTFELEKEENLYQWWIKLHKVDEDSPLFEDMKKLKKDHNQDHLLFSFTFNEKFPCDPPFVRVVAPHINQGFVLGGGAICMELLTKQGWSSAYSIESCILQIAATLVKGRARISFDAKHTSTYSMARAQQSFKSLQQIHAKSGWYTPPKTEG

T1: FLAG-SIAH-1 (C. elegans) (UniProt Q965X6)
T1 sequence: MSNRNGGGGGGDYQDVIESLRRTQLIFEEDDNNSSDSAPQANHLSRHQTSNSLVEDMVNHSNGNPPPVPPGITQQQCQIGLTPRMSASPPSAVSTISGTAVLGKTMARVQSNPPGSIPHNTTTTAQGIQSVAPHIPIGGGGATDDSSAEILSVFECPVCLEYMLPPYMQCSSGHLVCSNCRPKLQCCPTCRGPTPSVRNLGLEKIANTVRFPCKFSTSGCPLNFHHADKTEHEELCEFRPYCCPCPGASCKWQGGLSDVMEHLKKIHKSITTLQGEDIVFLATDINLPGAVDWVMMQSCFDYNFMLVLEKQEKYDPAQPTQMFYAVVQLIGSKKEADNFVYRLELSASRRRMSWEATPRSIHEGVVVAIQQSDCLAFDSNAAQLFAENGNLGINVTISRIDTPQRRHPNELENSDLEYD

T2: GST-SIAH-1(192-419) (C. elegans) (UniProt Q965X6)
T2 sequence: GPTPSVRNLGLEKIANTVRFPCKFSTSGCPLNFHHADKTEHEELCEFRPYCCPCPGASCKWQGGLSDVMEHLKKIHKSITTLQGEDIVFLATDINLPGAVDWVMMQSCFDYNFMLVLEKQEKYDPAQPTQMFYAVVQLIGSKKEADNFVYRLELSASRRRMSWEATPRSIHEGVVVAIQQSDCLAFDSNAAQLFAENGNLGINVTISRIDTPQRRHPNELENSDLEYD

T3: DVE-1::GFP(KI) (C. elegans (endogenous in worms)) (UniProt Q86MI0)
T3 sequence: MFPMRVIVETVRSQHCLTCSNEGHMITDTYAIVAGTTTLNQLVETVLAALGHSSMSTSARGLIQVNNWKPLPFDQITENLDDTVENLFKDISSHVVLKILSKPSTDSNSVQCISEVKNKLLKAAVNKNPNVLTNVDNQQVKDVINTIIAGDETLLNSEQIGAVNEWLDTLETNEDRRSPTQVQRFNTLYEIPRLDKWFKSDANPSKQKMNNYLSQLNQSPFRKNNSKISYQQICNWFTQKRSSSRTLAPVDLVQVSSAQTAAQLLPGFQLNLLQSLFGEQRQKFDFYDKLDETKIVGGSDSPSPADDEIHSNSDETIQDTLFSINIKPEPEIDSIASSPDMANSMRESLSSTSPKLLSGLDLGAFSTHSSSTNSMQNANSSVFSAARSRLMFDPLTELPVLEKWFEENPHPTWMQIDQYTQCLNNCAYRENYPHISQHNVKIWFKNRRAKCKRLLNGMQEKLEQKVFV


Experiments:
FLAG-SIAH-1 (C. elegans) = target: T1, FLAG-SIAH-1 (C. elegans); assay: co-IP; HEK293 cells transfected with Myc-UBC-25 and FLAG-SIAH-1; lysates 48 h after transfection; IP with anti-FLAG antibody or control IgG, blot with anti-Myc or anti-FLAG
[1] = target: T2, GST-SIAH-1(192-419) (C. elegans); assay: pull-down; 5 μg purified GST fusion on glutathione-Sepharose beads incubated with HEK293T lysates holding Myc-tagged DVE-1 constructs; washes with 50 mM Tris-HCl pH 7.6, 250 mM NaCl, 0.5% NP-40, 1 mM EDTA; blot with anti-Myc; only the target purified
[2] = target: T3, DVE-1::GFP(KI) (C. elegans (endogenous in worms)); assay: co-IP; C. elegans worm lysates (with or without 10 μM MG132 before lysis); GFP-Trap Agarose (anti-GFP nanobody) overnight at 4 °C; washes with 50 mM Tris-HCl pH 8.0, 300 mM NaCl; blot with anti-GFP and anti-SIAH-1

| binding [1] | Molecule | further results |
| --- | --- | --- |
| – | Myc-UBC-25 (from UniProt Q93571 1-387) (enzyme) | binding (FLAG-SIAH-1 (C. elegans)): binds |
| no binding | Myc-DVE-1(1-178) (domain or fragment, UniProt Q86MI0 1-178) MFPMRVIVETVRSQHCLTCSNEGHMITDTYAIVAGTTTLNQLVETVLAALGHSSMSTSARGLIQVNNWKPLPFDQITENLDDTVENLFKDISSHVVLKILSKPSTDSNSVQCISEVKNKLLKAAVNKNPNVLTNVDNQQVKDVINTIIAGDETLLNSEQIGAVNEWLDTLETNEDRRS | – |
| binds | Myc-DVE-1 (protein, UniProt Q86MI0 1-468) MFPMRVIVETVRSQHCLTCSNEGHMITDTYAIVAGTTTLNQLVETVLAALGHSSMSTSARGLIQVNNWKPLPFDQITENLDDTVENLFKDISSHVVLKILSKPSTDSNSVQCISEVKNKLLKAAVNKNPNVLTNVDNQQVKDVINTIIAGDETLLNSEQIGAVNEWLDTLETNEDRRSPTQVQRFNTLYEIPRLDKWFKSDANPSKQKMNNYLSQLNQSPFRKNNSKISYQQICNWFTQKRSSSRTLAPVDLVQVSSAQTAAQLLPGFQLNLLQSLFGEQRQKFDFYDKLDETKIVGGSDSPSPADDEIHSNSDETIQDTLFSINIKPEPEIDSIASSPDMANSMRESLSSTSPKLLSGLDLGAFSTHSSSTNSMQNANSSVFSAARSRLMFDPLTELPVLEKWFEENPHPTWMQIDQYTQCLNNCAYRENYPHISQHNVKIWFKNRRAKCKRLLNGMQEKLEQKVFV | – |
| – | SIAH-1 (full-length, endogenous) (enzyme, UniProt Q965X6 1-419) MSNRNGGGGGGDYQDVIESLRRTQLIFEEDDNNSSDSAPQANHLSRHQTSNSLVEDMVNHSNGNPPPVPPGITQQQCQIGLTPRMSASPPSAVSTISGTAVLGKTMARVQSNPPGSIPHNTTTTAQGIQSVAPHIPIGGGGATDDSSAEILSVFECPVCLEYMLPPYMQCSSGHLVCSNCRPKLQCCPTCRGPTPSVRNLGLEKIANTVRFPCKFSTSGCPLNFHHADKTEHEELCEFRPYCCPCPGASCKWQGGLSDVMEHLKKIHKSITTLQGEDIVFLATDINLPGAVDWVMMQSCFDYNFMLVLEKQEKYDPAQPTQMFYAVVQLIGSKKEADNFVYRLELSASRRRMSWEATPRSIHEGVVVAIQQSDCLAFDSNAAQLFAENGNLGINVTISRIDTPQRRHPNELENSDLEYD | binding [2]: binds |
| binds | Myc-DVE-1(179-468) (domain or fragment, UniProt Q86MI0 179-468) PTQVQRFNTLYEIPRLDKWFKSDANPSKQKMNNYLSQLNQSPFRKNNSKISYQQICNWFTQKRSSSRTLAPVDLVQVSSAQTAAQLLPGFQLNLLQSLFGEQRQKFDFYDKLDETKIVGGSDSPSPADDEIHSNSDETIQDTLFSINIKPEPEIDSIASSPDMANSMRESLSSTSPKLLSGLDLGAFSTHSSSTNSMQNANSSVFSAARSRLMFDPLTELPVLEKWFEENPHPTWMQIDQYTQCLNNCAYRENYPHISQHNVKIWFKNRRAKCKRLLNGMQEKLEQKVFV | – |
